Data on 42 sequences can be found in paper PMC7819943, “Rice protein-binding microarrays: a tool to detect cis-acting elements near promoter regions in rice”.

Some of the results follow.

In this experiment the target is T1, OsWOX13 (Oryza sativa, UniProt Q5QMM3 1-267).
T1 sequence: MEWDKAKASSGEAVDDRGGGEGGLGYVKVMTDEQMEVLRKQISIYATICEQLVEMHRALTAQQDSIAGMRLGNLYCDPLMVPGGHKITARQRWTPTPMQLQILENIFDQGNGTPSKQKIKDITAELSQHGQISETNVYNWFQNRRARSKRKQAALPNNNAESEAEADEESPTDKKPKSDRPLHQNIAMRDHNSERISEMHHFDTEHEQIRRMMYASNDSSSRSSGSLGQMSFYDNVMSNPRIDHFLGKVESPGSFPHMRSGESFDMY
Briefly: protein-binding microarray (RPBM); PBS, 2% BSA, 51.3 ng/ul salmon testes DNA, 50 uM zinc acetate, 200 nM TF, 25 C, 1 h; high values mean tight binding. The following applies: protein: recombinant; tags: N-terminal polyhistidine and DsRed monomer fusion (pET32a); label: CyDye5-dUTP incorporated in the synthesized complementary strand; 3' TTTTT single-stranded linker to array surface; dsDNA, one strand shown. The method in brief: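 Binding signal is defined as the fluorescence intensity of each feature in arbitrary units, read on an Axon 4000B scanner. Transcription factors with N-terminal polyhistidine and DsRed fusions came from E. coli BL21-CodonPlus and were purified on Ni–NTA. They were incubated at 200 nM for 1 h at 25 °C on a custom Agilent array that had been made double-stranded with Cy5-dUTP, with 50 µM zinc acetate present, and the array was washed.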
“TAACTGATTTGACTCGTGCGTACACGCATCGCAGTGACAACGGAGTCACCTAGTGCAG”: the binding signal was 15800 fluorescence intensity (a.u.).
To “CATAAATCATGGGGACTGAGATGCAAAACTGACCCTAACACGGAGTCACCTAGTGCAG” belongs 4540 fluorescence intensity (a.u.).
The value for “AATATGATAGATGTGCTCGGGCTCCTGGGAAAGAGGCCACCGGAGTCACCTAGTGCAG” was 7990 fluorescence intensity (a.u.).
Regarding “ACCCTGTAAACTTGTTAATTGAATTCTAGTGGATGCACTGCGGAGTCACCTAGTGCAG”, the binding signal was 23400 fluorescence intensity (a.u.).
For “TTTGTGATAGATTAGCGCATAGTAAATAATATAATACAAACGGAGTCACCTAGTGCAG”, the binding signal is 6830 fluorescence intensity (a.u.).
On to “TCACCACGTAGACAAATTCAATCAACCGGCTACCCTCCCGCGGAGTCACCTAGTGCAG”, for which the binding signal was 7540 fluorescence intensity (a.u.).
The value for “ACACTATTGATTTTGAACACGCATTTAACAATTTATCTTACGGAGTCACCTAGTGCAG” was 6390 fluorescence intensity (a.u.); that for “ACGATGAACAAATCAACCCAAATAACGTACCGTCGATTTTCGGAGTCACCTAGTGCAG” was 3930 fluorescence intensity (a.u.); that for “AGTTAATTAGTAAAGCCCAAGCAGTCCAGTAACCAATCCGCGGAGTCACCTAGTGCAG” was 34400 fluorescence intensity (a.u.).
The value for “AAAATAGATTTAATTATTAATTTAATAAAACTAATTTGATCGGAGTCACCTAGTGCAG” was 39300 fluorescence intensity (a.u.).
“CTTTTATGATTAGGCCATAGAATATAAACAGTAATTCCGGCGGAGTCACCTAGTGCAG”: the binding signal was 24200 fluorescence intensity (a.u.).
To “CGCAATTGACATTTTATCACACGTTTAATCATTCATCTTACGGAGTCACCTAGTGCAG” belongs 35700 fluorescence intensity (a.u.); to “AGCTGTCCCGTGATTTGTTCGTATCTTCCAGATATGCAAACGGAGTCACCTAGTGCAG”, 3850 fluorescence intensity (a.u.).
For “ACTAAACAATTAAGCTCCCAAATCACATCACAAACACCCCCGGAGTCACCTAGTGCAG”, the binding signal is 8520 fluorescence intensity (a.u.).
To “GTGATCTGATGAATGCATTTCGTGATTCCATTGCACTTGCCGGAGTCACCTAGTGCAG” belongs 3370 fluorescence intensity (a.u.); to “TGGGATTTGTAATTTGTGGTGAAATGAGGAGCCTAATCCACGGAGTCACCTAGTGCAG”, 10500 fluorescence intensity (a.u.); to “ATTCCTAAATTGCTCTACCCCTTGCTCAGAATCCTTGTTACGGAGTCACCTAGTGCAG”, 4940 fluorescence intensity (a.u.).
On to “TTATAAAGATTTAATTGCAACGAACATAATAGTGTAATCGCGGAGTCACCTAGTGCAG”, for which the binding signal is 15000 fluorescence intensity (a.u.).
The value for “CATCTTCTTTGATTAGCGTGAAAATATAAAACACAAACATCGGAGTCACCTAGTGCAG” was 12300 fluorescence intensity (a.u.).
To “GCAGATAATTGACTCCCCTGGCATTGACATGGCCTTCCCACGGAGTCACCTAGTGCAG” belongs 39500 fluorescence intensity (a.u.); to “TGTAATTTGTTCTTGTTATCATCAATCCCATATAAACTGGCGGAGTCACCTAGTGCAG”, 22300 fluorescence intensity (a.u.); to “AGCTAGTTAAATAGAGGATTAATAATCGAAACAGTGAAACCGGAGTCACCTAGTGCAG”, 3470 fluorescence intensity (a.u.).
The value for “CCCAATTAACAGGCATGCACATTTGGGCTTGCAACACTGACGGAGTCACCTAGTGCAG” was 22200 fluorescence intensity (a.u.); that for “CAAATCAATATATTGCATGTGGATTATAAATGTTTGTGTGCGGAGTCACCTAGTGCAG” was 3200 fluorescence intensity (a.u.); that for “GAGATTAACATATGAAGAATTGAAGAAACCGGCCAGTAAACGGAGTCACCTAGTGCAG” was 3340 fluorescence intensity (a.u.).
With “ACCATTAACAAATCAATCCGAGCATTTTCTTTCTTTTGATCGGAGTCACCTAGTGCAG”, the binding signal is 11200 fluorescence intensity (a.u.).
The value for “GTAGAGATAGATAATATAATTTATTTCATATGGGTAGTCCCGGAGTCACCTAGTGCAG” was 12000 fluorescence intensity (a.u.); that for “TACATTATTACAGCGGTCTTAATTAATCAAGCCAAGGCAGCGGAGTCACCTAGTGCAG” was 3650 fluorescence intensity (a.u.).
The value for “CTTAATTAATATATATTTGTGAAGACCTAACTTCGAGTCCCGGAGTCACCTAGTGCAG” was 37400 fluorescence intensity (a.u.); that for “TGGTTAGTTGATTTTATGATTTAGAGTAGAAGTTCGTTCGCGGAGTCACCTAGTGCAG” was 10100 fluorescence intensity (a.u.); that for “AAGTAAACTGATCTGATCACGCGAGCTGGGCTAAAATGGACGGAGTCACCTAGTGCAG” was 5540 fluorescence intensity (a.u.).
As to “AACACTGATTGCACATCAAGGTCCCCACTCAATGATAAACCGGAGTCACCTAGTGCAG”, the binding signal was 38600 fluorescence intensity (a.u.).
“AGTAATTTTGGTACAATTAATAAATAAATCTGATACCTCACGGAGTCACCTAGTGCAG”: the binding signal is 21200 fluorescence intensity (a.u.).
Take “GGCTGATTATTTTAGACGTGTTTAGGGGTGAATTTGGATTCGGAGTCACCTAGTGCAG”: the binding signal is 28400 fluorescence intensity (a.u.).
Consider “GCCTAATTTATGCCTCATACCAAACCAGCCCATAAAATACCGGAGTCACCTAGTGCAG”, for which the binding signal was 11400 fluorescence intensity (a.u.).
“TTGTAGCAAGATCCCAATCATAATAGATGATGGCAAATGCCGGAGTCACCTAGTGCAG”: the binding signal is 5460 fluorescence intensity (a.u.).
“ATACTTGATTTAAAGCACGAGAAACGAGCCAACGACCGAACGGAGTCACCTAGTGCAG”: the binding signal was 3630 fluorescence intensity (a.u.).
The value for “ATGAGCCTAACCATTTCTAGTGTTACTTACTCCATTTCAGCGGAGTCACCTAGTGCAG” was 64200 fluorescence intensity (a.u.).
Turning to “GGTCAATAATTGAAGTATATATGTTACACTAATTATAAATCGGAGTCACCTAGTGCAG”, the binding signal is 27300 fluorescence intensity (a.u.).
To “CACCAATGATCAATTTGTCAATAATCTAGAACCTTCTTCTCGGAGTCACCTAGTGCAG” belongs 16000 fluorescence intensity (a.u.).
With “TGTAATTATCAAGCTGTTCATGGGACAACACAAGCTTATACGGAGTCACCTAGTGCAG”, the binding signal was 5130 fluorescence intensity (a.u.).
To “CTTAATTACTATTCCCTCCGTCATACAATATAAGAGATTTCGGAGTCACCTAGTGCAG” belongs 22500 fluorescence intensity (a.u.).
